The values that follow come from publication PMC10340229, “EpoR Activation Stimulates Erythroid Precursor Proliferation by Inducing Phosphorylation of Tyrosine-88 of the CDK-Inhibitor p27^Kip1” (Cells, 2023).

This test addresses T1, GST–hIC EpoR (273–508aa), cytoplasmic domain of human EpoR (human, UniProt P19235 273-508).
T1 construct: also called GST–EpoR; source: E. coli BL21, purified on glutathione Sepharose beads
T1 sequence (looked up): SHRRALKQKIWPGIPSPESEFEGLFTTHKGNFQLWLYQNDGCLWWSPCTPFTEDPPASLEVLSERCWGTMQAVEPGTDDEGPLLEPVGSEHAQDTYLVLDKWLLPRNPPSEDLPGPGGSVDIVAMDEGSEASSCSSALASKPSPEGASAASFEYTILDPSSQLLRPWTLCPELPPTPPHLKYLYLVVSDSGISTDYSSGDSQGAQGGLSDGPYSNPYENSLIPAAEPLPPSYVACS
Kind of test: pull-down; GST fusion proteins bound on glutathione Sepharose beads incubated for 2 h at 4 °C with purified bacterial p27, p27 mutants or p27 fragments; extensive washing; bound p27 detected by Western blot. Particulars: both partners purified.

B1: His–tagged p27 N–terminus ([…]) (domain or fragment)
chain: not shown
notes: also called N–terminal p27; source: bacteria, purified by heat treatment
As to B1, the binding result was “binds”.
